# In article PMC10668032:
# The other results are listed elsewhere or left out. At the low end of the ranking the order means little.
# Target: SIX1 homeodomain (reference allele) (UniProt Q15475)
# Test: universal protein binding microarray
# Settings: Universal all-10-mer PBM (8x60K, AMADID 030236), 300 nM GST-tagged protein, Alexa Fluor 488 anti-GST; buffer, salt, pH and temperature not stated; high values mean tight binding; most listed sequences are background and not binding sites; double strand, one strand shown
row,Sequence,binding signal [E-score]
1,CGGGGTTC,0.181
2,CCAGCGCA,-0.0754
3,CGTCTGTA,-0.0985
4,AGGTCGAG,-0.311
5,ACTAAATC,-0.107
6,AAAGATAA,-0.12
7,GAAAGCGA,-0.0978
8,ATGATTCA,-0.147
9,AACAAAAC,-0.126
10,CCGACTCA,-0.0758
11,TATGCGAA,0.164
12,CACTGCCC,-0.222
13,GATTCCAC,0.142
14,CGTAGCAA,-0.117
15,ATCTTCCC,0.174
16,CGATGCAA,-0.0562
17,TCATACAA,0.0502
18,CCGTTGAC,-0.0822
19,GTATGCTA,0.107
20,ACTCGTAT,0.205
21,GCGCTAAC,-0.0761
22,GACTACTC,-0.135
23,AAAATACC,0.181
24,GAACTGCC,-0.072
25,GCATATAA,0.175

row,Sequence,binding signal [E-score]
1,AGGCTTAC,-0.246
2,ATTTGACG,-0.0934
3,ACTCGTAA,-0.105
4,CGGGCAAC,-0.0178
5,CCCCTCGC,0.0809
6,GGGTCTGA,-0.143
7,CCGAATCA,0.00671
8,ATTGCCTA,0.0953
9,CAACCTTA,-0.189
10,ACAGCTAC,-0.0216
11,CATGCCGC,0.0784
12,AATCTGGC,0.0437
13,TCAACAGA,-0.0865
14,AGGAGCCA,0.135
15,CATATCCA,0.348
16,AGATTTTG,-0.12
17,CAAAGGAA,-0.257
18,ATGTAGAA,0.109
19,GGATCGCA,0.366
20,AACTGGTG,0.154
21,AACTCGTC,-0.32
22,AGGACTGA,0.0143
23,GCCGTGGA,-0.11
24,GATCGCCC,0.379
25,CGGAGCTC,-0.0504

row,Sequence,binding signal [E-score]
1,TCGACCAA,-0.166
2,AATAATAG,-0.00988
3,GTGGAGTA,0.167
4,TGCCTTAA,-0.156
5,AGAAGCCC,-0.0689
6,CTCCCGAG,-0.0973
7,AGGCGTTC,-0.2
8,AGCGGATA,0.364
9,ACGCGGTG,0.0207
10,TACCAACA,0.107
11,TCCCAGGA,0.129
12,ACACTTCT,0.135
13,GTTAGCGA,0.0325
14,AAAAGTTT,-0.329
15,CCTGAGGC,-0.12
16,CCCAATTA,0.0162
17,AGGATTAC,0.106
18,AAGGCTCC,-0.246
19,CGAACGTA,-0.0237
20,ATAAGAAC,-0.00959
21,TCGCGGCA,-0.0108
22,TCTAGTCA,-0.0793
23,ATAAATAT,0.168
24,GCACGGCA,-0.324
25,GGAATGCA,-0.242

row,Sequence,binding signal [E-score]
1,CAAATAGC,-0.191
2,TAAGCGCA,-0.188
3,TATGATAA,0.17
4,GCATAGCA,-0.187
5,CAAGCCCG,-0.171
6,ATTGTATC,0.367
7,GTGGCACA,-0.155
8,ACGCTGGA,-0.132
9,GCGATACC,0.483
10,AACTGCGT,-0.237
11,ATAGAACC,0.00942
12,AAAGGATT,0.0331
13,CTTGTATC,0.266
14,AGTTTATC,0.117
15,AGACATCA,-0.0801
16,CATGCGTA,0.0602
17,GGACGCCC,-0.299
18,ACTGTCCA,-0.049
19,GATATTAA,0.31
20,GGATATAA,0.352
21,AAGCCCAA,-0.222
22,CTGTGTCA,0.0146
23,GTGACCAA,-0.0791
24,AGAACACT,-0.0901
25,AATTTACA,-0.258

row,Sequence,binding signal [E-score]
1,AATAATAA,0.0553
2,GATCCCGC,0.375
3,CATAGTCA,-0.067
4,ATAGCGAA,0.135
5,AGCGGGTA,0.143
6,CTGGTCCA,-0.014
7,ATACGGAA,0.218
8,CTCGAGAC,0.0385
9,AGTGTTTG,-0.159
10,GGCGTGAC,-0.238
11,AGGGGTAC,0.178
12,ACTTCGTA,-0.206
13,GAAAAACA,-0.317
14,AGAGACCT,-0.146
15,CAAATGCA,-0.234
16,AGGACGAT,0.13
17,GGCCTCAC,-0.201
18,ATCTGGTA,0.284
19,CGGTCGCC,-0.0292
20,CATATAGC,0.162
21,ACGAACGC,-0.26
22,ATTGGGGA,0.138
23,AGATGTTC,-0.217
24,ACCAGTAC,-0.0111
25,ATGCCATC,0.0271

row,Sequence,binding signal [E-score]
1,AGTTTCAT,0.0286
2,CGTCGTCC,-0.184
3,AAAGGCAA,-0.276
4,TCTGTACA,-0.103
5,CCGCGTCC,-0.0692
6,GCCGGAAC,-0.0482
7,GCACGCGC,-0.222
8,CTTCTAAA,-0.0951
9,GACAGAGC,-0.212
10,ATTCGAAC,-0.0261
11,AAGGCGCA,-0.139
12,ACCTGTAA,-0.0894
13,GGGCTGCA,-0.117
14,CCTCAGGC,-0.065
15,GCCCCGCC,0.274
16,ATGCATCA,0.198
17,AGTACGGC,-0.223
18,AGTGCAGA,-0.0857
19,ACGGAAAC,-0.276
20,AGAATACT,0.208
21,GGCTGTCA,-0.194
22,AACATAGA,-0.0344
23,CAGTGCTC,0.0264
24,ATCATTCC,0.291
25,GGCTCGGA,0.129

row,Sequence,binding signal [E-score]
1,GGCGAATA,5.5e-05
2,GCTGACCA,0.0419
3,GTCGTGTA,0.096
4,ACAGGAAC,-0.246
5,TCCTTAGA,0.0888
6,CAGCCCAA,-0.118
7,AGTCTACC,-0.0945
8,AACAAAGA,-0.186
9,AATCCGCT,0.191
10,CCGCCCTA,0.00773
11,GAGCACTC,-0.0612
12,GGCCTCTA,-0.106
13,ACCCACTA,0.139
14,ATAGCCAG,0.0395
15,ATGGGGAC,0.049
16,ATTTGCTC,-0.193
17,GTCCATGA,-0.0208
18,GCGCGACC,-0.0719
19,CTAGGATC,0.36
20,ACGTCGGC,-0.154
21,CACCACCG,0.139
22,CTACCAGA,0.079
23,ACAATTGG,-0.154
24,GCGACTCC,-0.22
25,CGAAACAG,-0.121

row,Sequence,binding signal [E-score]
1,GAGATTAA,0.00636
2,AACACGAC,-0.0661
3,AACACCGA,0.228
4,AATAGAAA,-0.184
5,AGTCGAGC,-0.163
6,GTTGTGGA,-0.129
7,ACGACTAC,-0.162
8,AGCTGACG,-0.286
9,CTGTGGTC,-0.0409
10,CGACAGCA,-0.207
11,CAGAAGTC,-0.265
12,CGAACCGA,0.112
13,ACAGGAGG,-0.0838
14,CATTGAAC,2.5e-05
15,CCCCCTAG,0.0343
16,CAAGAGAC,-0.0827
17,ATCATGGC,0.209
18,AAAGCTAG,-0.0578
19,GCACTAGC,0.131
20,GGATAATA,0.328
21,CGGCCTTA,-0.0827
22,CGGGACGA,-0.171
23,GATCTCTA,0.165
24,GCTCAGTA,0.0698
25,TAAACCTA,-0.0361

row,Sequence,binding signal [E-score]
1,TATCCCCA,0.35
2,TCGTTACA,0.0617
3,AGTATTCG,-0.0279
4,CACTCAGC,-0.128
5,GCGTCTCC,0.083
6,ATGGAAAG,-0.256
7,GCGGCTCA,0.154
8,GAGGAATC,0.0731
9,GCCAATAA,0.00915
10,AACGCAAA,-0.101
11,CAGGATTA,0.213
12,AATTTGGA,-0.0102
13,GCACGCAC,-0.275
14,ACCGATCG,0.272
15,CGCCAGAA,0.0165
16,AGTGTCTC,0.14
17,ACGCATTC,-0.226
18,GGATGCGA,0.116
19,ACGCGTTG,-0.148
20,ACTGAGCT,-0.0407
21,CCGAACGA,0.0208
22,GAGCCGCC,0.0196
23,TAATGAGA,0.105
24,AAGGCTGA,-0.164
25,AGTGGTCC,-0.0595

row,Sequence,binding signal [E-score]
1,CACATAGA,-0.089
2,CTTAGGCC,-0.133
3,ACTAAAGT,-0.12
4,CGTACCAA,0.0396
5,CAATCCCG,0.155
6,GACTTTCA,-0.248
7,TCGTACGA,0.123
8,GTAATCGA,0.0558
9,CCATACGA,0.066
10,GGTCCTGA,0.0339
11,CAATACGA,0.207
12,ACCGGTCG,-0.0395
13,TAGTCTAA,0.0177
14,CTGTACTA,-0.148
15,AGTCCTTG,-0.178
16,TACCCCCA,0.243
17,ACCGGAGT,0.0581
18,CGGTCACG,-0.28
19,ACCTATTC,-0.112
20,CCGGTCCG,-0.281
21,CGTACGAC,-0.117
22,ACCTCGTC,0.00701
23,CTGTGCAC,-0.041
24,CGGCGTTC,-0.121
25,ACTGTGTA,-0.0428

row,Sequence,binding signal [E-score]
1,GCAGTGCA,-0.12
2,CGATGTCA,-0.301
3,AAAAGGCC,-0.137
4,TTCAAGAA,-0.112
5,GCAGCGCC,-0.277
6,ACCTGCTC,0.0651
7,CGTACAGA,-0.0765
8,GGATGTGA,0.0332
9,ACACCGAG,0.33
10,GTCAGTAA,-0.00843
11,AAATATTG,0.0121
12,CGACCCTC,-0.156
13,AACCGAAG,-0.159
14,AAGGAGCC,-0.0376
15,CGGAAGGA,-0.00308
16,CGCCATAA,-0.0579
17,GCACGCAA,-0.199
18,AAGCATAT,0.191
19,ATGCGAAC,0.0769
20,CCAAATGC,-0.0927
21,CCCTGCCG,-0.098
22,AAAGACAC,0.102
23,GGCGCACC,-0.0719
24,TGTTATAA,0.0518
25,GAATGCGC,0.0394

row,Sequence,binding signal [E-score]
1,AGGAAAAA,-0.159
2,GCATGATA,0.427
3,GATCACGA,0.273
4,AGCCCCCC,-0.0894
5,AATAGCGC,-0.0666
6,CTCCTGGC,0.0434
7,CAATCCGG,0.268
8,ACCCGTTG,-0.0663
9,ACGGAGAG,-0.0955
10,CAACTTTA,-0.276
11,CTCCTCCC,-0.193
12,CATTTTCA,-0.118
13,CCTTTACA,-0.176
14,AATTACCT,-0.297
15,GTCGCCAA,-0.166
16,AAACGTTC,-0.207
17,AGATTCCA,-0.107
18,CAAACACC,0.174
19,CCACCAGA,0.0796
20,CAGCGTCC,-0.225
21,CTCGGTTC,-0.0557
22,CACTCCGC,-0.0539
23,ATATCCGG,0.421
24,AGCGGCGG,-0.158
25,ACCGTTTG,-0.0542

row,Sequence,binding signal [E-score]
1,ATTTCGTG,-0.0899
2,CCTTCGGA,0.138
3,GCGGATAC,0.43
4,ATTCGTTA,-0.00264
5,ACGATGCG,-0.0412
6,CTGCATGA,-0.0354
7,GTGATAAA,-0.156
8,AGCCGACT,0.023
9,CTTTTGAC,-0.253
10,AAGTTAGT,-0.279
11,AGTGGAGG,-0.0179
12,AAACCCTC,-0.162
13,CAATACAG,0.0858
14,AACGAGCT,-0.00337
15,GTGTTAGA,0.214
16,AAACCAGT,-0.0512
17,CTCGACAC,0.129
18,ACAGGTAG,0.0291
19,AACGGACC,-0.111
20,AGAAACCG,0.0115
21,CATCAGAA,-0.179
22,AACAAAGC,-0.266
23,TAGTGACA,0.0797
24,AGTCATTG,-0.177
25,CAGTGAGA,0.16

row,Sequence,binding signal [E-score]
1,ACTTGGAA,-0.0387
2,AGTGCTAA,-0.17
3,AGTAACTA,-0.176
4,ATGAGCTA,-0.0189
5,GCTGAAAC,-0.194
6,GATCTTGA,0.269
7,AGAATAGG,0.0562
8,ATTGGTTG,-0.0105
9,CAACCCAG,-0.0276
10,CCGGCTTA,0.131
11,AAATAGCT,-0.239
12,GGTGATAC,0.486
13,CTGCGCTC,-0.193
14,AGTGCCGC,-0.184
15,CCACTTGA,0.0687
16,ATCGATTG,0.0667
17,AACGCGAA,-0.146
18,CGTATAGC,0.185
19,CAGTTTTA,-0.101
